Drawing on the RNAGym collection of RNA variant scans (doi:10.1093/nar/gkz1192), this text covers self-cleavage for 34 variants.

B1: CPEB3 Ribozyme (parent)
chain: UAACAGGGGGCCACAGCAGAAGCGUUCACGUCGCAGCCCCUGUCAGAUUCUGGUGAAUCUGCGAAUUCUGCUGUAUAUCUC

Read counts are not given, so values of variants with three or more changes are uncertain.

This data set covers variants of B1. The data set can be described thus: self-cleavage, relative activity (ratio to wild type); higher = more cleavage; in vitro, sequencing. Put shortly:
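Barcoded CPEB3 ribozyme mutants, produced by rounds of error-prone PCR, self-cleaved while being transcribed with T7 RNA polymerase for 5 hours at 37°C and during a subsequent 15 min DNase I step before EDTA was added. Sequencing of template-switched cDNA on Illumina gave cleaved and total reads, and DNA sequencing assigned barcodes to variants. Each variant's relative activity is its cleaved/total read fraction divided by the unmutated ribozyme's fraction, averaged across three batches. A variant needed a minimum of 5 reads.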
Regarding UAACAGGGGGCCACAGCAGAAGCGUUCACGACGCGGCCCCUGUCAGAUUCUGGUGAAUCCGCGAAUUCUGCUGUAUAUCUC, the self-cleavage was 0.93. As for UAACAGGGGGCCACAGCAGAAGCGUUCACGACGCAGCCCCUGUCAGAUUCUGGUGAAUCUGCGCAUUCUGCUGUGUAUCUC, the self-cleavage is 0.06. For the variant UAACAGGGGGCCACAGCAGAAGCGUUCACGACGCAGCCCCUGUCAGAUUCUGGUGUAUCUGCGAAUUCUGCUGUACACCUC, the self-cleavage turned out to be 0.18. To UAACAGGGGGCCACAGCAGAAGCGUUCACGACGCAGCCCCUGUCAGAUUCUGGUGGAUCUGCGAAUUCCGCUGUAUAUCUC belongs 0.2; to UAACAGGGGGCCACAGCAGAAGCGUUCACGACGCGGCCCCUGUCAGAUUCUGGUGAAUCUGCGAAUACUGCUGUAUACCUC, 0.82.

Consider UAACAGGGGGCCACAGCAGAAGCGUUCACGACGCAGCCCCCGUCAGAUUCUGGUGAAUCUGCGAAUUCUGCGGUAUAUCUC, for which the self-cleavage stood at 0.43.

Consider UAACAGGGGGCCACAGCAGAAGCGUUCACGACGCAGCCCCUGUCGGAUUCUGGUGAAUCUGCGAAUUCUGCUGUACAUCGC, for which the self-cleavage stood at 0.36. On to UAACAGGGGGCCACAGCAGAAGCGUUCACGACGCAGCCCCUGUAAGAUUCUGGUGAACCUGCGAACUCUGCUGUAUAUCUC, for which the self-cleavage worked out at 0.12. Take UAACAGGGGGCCACAGCAGAAGCGUUCACGACGCAGCACCUGUCAGAUUCUGGUGAAUCAGCGAAUCCCGCUGUAUAUCUC: the self-cleavage turned out to be 0.05. As for UAACAGGGGGCCACAGCAGAAGCGUUCACGACGCUGCCCCUGUCAGAUUCUGGCGAAUCUGCGUAUUCUGCUGUAUAUCUC, the self-cleavage is 0.15. For the variant UAACAGGGGGCCACAGCAGAAGCGUUCACGAAGCAGCCCCUGUCAGAUUCCGGUGAAUCUGCGUAUUCUGCUGUAUAUCUC, the self-cleavage is 0.14.

On to UAACAGGGGGCCACAGCAGAAGCGUUCACGACACAGCCCCAGUCAGAUCCUGGAGAACCUGCGAAUUCUGCUGUAUAUCUC, for which the self-cleavage is 0.12. As to UAACAGGGGGCCACAGCAGAAGCGUUCACGACGCAGCCCCUGUCAGAUUCUGGUGUAUCUGCGAAUUCUGCCGUAUAUCUC, the self-cleavage came out at 0.22. As to UAACAGGGGGCCACAGCAGAAGCGUUCACGACGCAGCCCCUGUCAAAUUCUGGGGAAUCUGCGAAUUCUGCUGCAUAUCUC, the self-cleavage turned out to be 0.14. Turning to UAACAGGGGGCCACAGCAGAAGCGUUCACGACGCAGGCCCUGUCAGAUUCCGGUGAAUCUGCGAAUUCUGCUGUAUAUCUC, the self-cleavage amounted to 0.69. Consider UAACAGGGGGCCACAGCAGAAGCGUUCACGACGCUGCCCCUGUCAGACCCCGGUGAAUCUGCGAAUUCUGCUGUAUAUCUC, for which the self-cleavage was 0.08. Consider UAACAGGGGGCCACAGCAGAAGCGUUCACGACGCAGCCCCUGUCGGAUUCUGGUGAAUCUGCGAAUUCUGCUGUACAUCUC, for which the self-cleavage was 0.27. To UAACAGGGGGCCACAGCAGAAGCGUUCACGACGCAACCCCUGUCAGAUUCUGGUGAAUCUGCGAAUUCUGCUGUUUAUCUC belongs 0.17; to UAACAGGGGGCCACAGCAGAAGCGUUCACGACGCAGCCCCCGUCAGAUUCUGGUGAAUCUACGAAUUCUGCUGUAUAUCUC, 0.44; to UAACAGGGGGCCACAGCAGAAGCGUUCACGACGCAGCCCCUGUCAGAUUCUGGUGAAUCUGCGGAUUCUGCUGUAUAACUC, 0.42.

Take UAACAGGGGGCCACAGCAGAAGCGUUCACGACACGGCCCCUGUCAGAUUCUGGUGAAUCUGCGAAUUCUGCUGUAUAUCUC: the self-cleavage stood at 0.2. To UAACAGGGGGCCACAGCAGAAGCGUUCACGACGCGGCCCCUGCCAGAUUCUGGUGAAUCUGCGAACUCUGCUGUAUACCUC belongs 0.15; to UAACAGGGGGCCACAGCAGAAGCGUUCACGACGCAGCCCCCGUCAGAUUCUGGUGGAUCUGCGAGUCCUGCUGUAUAUCUC, 0.16. For UAACAGGGGGCCACAGCAGAAGCGUUCACGACGCAGCCCAUGUCAGACUCUGGUGAAUCUGCGAAUUCUGCUGUAUAUCUC, the self-cleavage was 0.08. In the case of UAACAGGGGGCCACAGCAGAAGCGUUCACGACGCAGCCCCUGUCCGGUUCUGGUGAAUCUGCGAAUUCUGCUGUAUAUCUC, the self-cleavage came out at 0.13.

As to UAACAGGGGGCCACAGCAGAAGCGUUCACGACGCGGCCCCUGUCAGAUUUUGGUGAAUCUGCGAAUUCCGCAGUAUAUCUC, the self-cleavage was found to be 0.3. To UAACAGGGGGCCACAGCAGAAGCGUUCACGACGCAGCCCCUGUCGGAUUCUGGUGAGUCUGCGAAUUCUGCAGUAUAUCUC belongs 0.13.

Turning to UAACAGGGGGCCACAGCAGAAGCGUUCACGACGCAGUCCCUGUCAGAUUCCGGUGAAUCUGCGAAUUCUGCCGCAUAUCUC, the self-cleavage was 0.27. As to UAACAGGGGGCCACAGCAGAAGCGUUCACGACGCAGCCCCUGUCUGAUUCUGGUGGGUCUGCGAACUCUGCUGUAUAUCUC, the self-cleavage turned out to be 0.07.

On to UAACAGGGGGCCACAGCAGAAGCGUUCACGACGCAGCCCCUGUCGGAUCCCGGUGAAUCUGCGAACUCUGCUGUAUAUCAC, for which the self-cleavage was determined as 0.08. UAACAGGGGGCCACAGCAGAAGCGUUCACGACGCAGCCCCUGUAAGAUUCUGGUGAAUUUGCGGAUUCUGCUGUGUAUCUC: the self-cleavage turned out to be 0.03. To UAACAGGGGGCCACAGCAGAAGCGUUCACGACGCAGCCCCAGUCAGACUCUGGUGAAUCUGCGAAUUCCGCUGUAUAUCUC belongs 0.11. On to UAACAGGGGGCCACAGCAGAAGCGUUCACGACGCAGCCCCAGUUUGAUUCUGGUGAAUCUGCGAAUUCUGCUGUAUAUCUC, for which the self-cleavage was found to be 0.13.

As for UAACAGGGGGCCACAGCAGAAGCGUUCACGACACAGCCCCUGUCAGAUUCUGGUGAACCUGCGAACUCUGCUGUACACCUC, the self-cleavage is 0.07.
